# Laboratory results taken from PubChem BioAssay AID1963576 (National Center for Advancing Translational Sciences (NCATS), 2024).
# About 60 (0.1%) of roughly 46,000 compounds were called active. Another 3% or so got no clear call; they are omitted. Calls come from the whole dose curve; as a rule, active = well fitted inhibition curve with a large enough effect; inconclusive = small, poorly fitted or top-dose-only effect; inactive = no such curve, though single readings can be large or run the other way. The list shows a part of the results.
# Assay: Primary qHTS assay for Inhibitors of ovarian cancer metastasis using an organotypic tumor microenvironment (TME) model.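 For activity change, negative = inhibition: plate controls were DMSO wells for no effect and tomatine positive control wells for full effect.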 Note: nearly all actives have a fitted effect of over 65% in size.
# Details: SKOV3ip1-GFP adhesion/invasion on 3D omental model, fluorescence; series mostly up to 45.8 µM; activity change, negative = inhibition: at the top concentration
# Procedure, shortened: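 A 3D layer of primary human omental fibroblasts, mesothelial cells, fibronectin and collagen I, grown 48 hr, received SKOV3ip1-GFP cells in serum-free medium plus compounds at 0.36-46 umol/L. After 2 hr RT and 16 hr 37 C, fixed adherent GFP cells were counted; normalized to DMSO and tomatine.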
Compound,"activity change, negative = inhibition",outcome
COc1ccc(C)cc1NC(=O)N1CCN(c2nnc(C)c3c(C)n(-c4ccccc4)nc23)CC1,inactive: -9.43%,–
O=C(Cn1c(=O)n(CCCS(=O)(=O)C2CCCCC2)c(=O)c2ccccc21)Nc1ccc(F)c(Cl)c1,–,inactive
O=C1C(c2c(O)[nH]c3ccccc23)=Nc2ccccc21,inactive: -11.6%,–
O=C(Cn1c(SCc2ccccc2F)nc2cccnc21)Nc1ccc(F)c(Cl)c1,–,inactive
CCNC(=O)c1c2c(nc3ccccc13)C(=O)N(C1CCCCC1)C2,inactive: 2.24%,–
Cc1ccc(CN2C(=O)c3ccccc3Sc3ccc(C(=O)NC4CCCC4)cc32)cc1,inactive: -2.41%,–
CCCCNc1sc(S(=O)(=O)CCC)nc1S(=O)(=O)c1ccc(C)cc1,inactive: 3.55%,–
COc1ccc(Cl)cc1C1CC(=O)Nc2cc3c(cc21)OCCO3 (stereo unspecified),inactive: -7.56%,–
CCOc1ccccc1NC(=O)CCc1c(C)nc2c3cccnc3nn2c1C,inactive: -10.7%,–
CCc1cccc(NC(=O)Cn2ncc3c([nH]c4ccc(C)cc43)c2=O)c1,inactive: 3.98%,–
O=C(Nc1ccc(F)cc1)Nc1ccc2snnc2c1,–,inactive
CCc1cccc(NC(=O)CN(c2ccc(C)cc2)S(=O)(=O)c2cccs2)c1,inactive: -18.3%,–
CS(=O)(=O)c1ccc(C(=O)Nc2ccc(Cl)c(-c3ccccn3)c2)c(Cl)c1,inactive: -5.41%,–
COc1cccc(C(=O)NCCc2csc(-c3cccc(F)c3)n2)c1OC,inactive: 4.28%,–
Cc1ccc(C(=O)N2CCc3cc(CNC(=O)CCc4ccccc4)ccc32)cc1,inactive: -4.5%,–
O=C(NC1CC(=O)N(c2ccccc2)C1)c1ccco1 (stereo unspecified),inactive: 6.58%,–
CC1(C)CC(=O)c2cc(-c3nc(-c4ccc(Cl)cc4)cs3)c(=O)n(-c3cccc(F)c3)c2C1,inactive: -0.0567%,–
CC1(C)CCC(c2ccc(Cl)cc2)=C(CN2CCN(c3ccc(C(=O)NS(=O)(=O)c4ccc(N[C@H](CCN5CCOCC5)CSc5ccccc5)c(S(=O)(=O)C(F)(F)F)c4)cc3)CC2)C1,inactive: -5.23%,–
COc1cc(C)ccc1OCCSc1nc2ccc(NC(=O)c3ccc(C)cc3)cc2s1,inactive: 5.29%,–
COc1ccccc1NC(=O)CCn1cnc2onc(-c3ccc(F)cc3)c2c1=O,inactive: -0.925%,–
O=C(CN1C(=O)CC(c2ccco2)Sc2ccccc21)Nc1ccc(Br)cc1 (stereo unspecified),–,inactive

Compound,"activity change, negative = inhibition",outcome
COc1ccccc1-c1noc(-c2ccc(NCc3cccnc3)c([N+](=O)[O-])c2)n1,–,inactive
CCCSc1nnc2c(n1)OC(c1ccc(OCC(=O)O)cc1)Nc1ccccc1-2 (stereo unspecified),inactive: 5.49%,–
CC(=O)c1cccc(Nc2nn(-c3ccc(OC(F)(F)F)cc3)nc2C(C)=O)c1,inactive: -5.78%,–
Cc1c(C(=O)N(Cc2ccc(N(C)C)cc2)Cc2ccco2)oc2cc(Br)ccc12,inactive: 7.37%,–
Cn1cc(C(=O)NCCc2ccccc2)c(=O)c2cc(S(=O)(=O)N3CCCCCC3)ccc21,inactive: -5.2%,–
COc1ccc(CNC(=O)CCc2c(C)nc3nc(CNC(=O)OC(C)(C)C)nn3c2C)cc1,inactive: -1.84%,–
COc1ccc(-c2ccc(CCC(=O)O)n2CC(=O)Nc2cccc(Cl)c2C)cc1,inactive: 3.11%,–
Cc1cc(C)cc(NC(=O)C(=O)NCC(c2cccnc2)N2CCN(c3ccccc3)CC2)c1 (stereo unspecified),inactive: 4.17%,–
CCCCn1cc(S(=O)(=O)c2ccc(CC)cc2)c(=O)c2cc(F)c(N3CCOCC3)cc21,–,inactive
CCOc1ccc(N(C(C)C(=O)NCCSc2ccc(C)cc2)S(C)(=O)=O)cc1 (stereo unspecified),inactive: 2.12%,–
COc1cccc(C(c2sc3nc(-c4ccco4)nn3c2O)N2CCN(c3ccccc3F)CC2)c1 (stereo unspecified),inactive: -7.42%,–
CCc1cc2c(cc3c(=O)n(CC(=O)NC4CCCCC4)ncn32)s1,inactive: -1.23%,–
Cc1ccc(OCC(=O)Nc2ccc3[nH]c(=O)sc3c2)cc1,inactive: 6.46%,–
COc1ccc(-n2ccn(Cc3ccccc3C)c(=O)c2=O)cc1,–,inactive
COc1ccc(NC(=O)C(C)Sc2cc(-c3ccccc3)nc(C)n2)cc1Cl (stereo unspecified),inactive: -25.9%,–
Cc1nn(-c2ccccc2)c2c1N(CCCC(=O)NCc1ccccc1)C(=O)CS2,–,inactive
O=C1CN(C(=O)Nc2ccccc2Cl)C(c2ccccc2)c2c(sc3c2CCCC3)N1 (stereo unspecified),inactive: -9.57%,–
COc1ccc(S(=O)(=O)Nc2cc3c(cc2N2CCOCC2)n(C)c(=O)n3C)cc1,inactive: 1.33%,–
O=C(CCn1c(=O)c2cccn2c2cccnc21)NCc1ccccc1F,inactive: -0.84%,–
COc1cccc(NC(=O)c2ccc3[nH]c(C)cc(=O)c3c2)c1,inactive: 5.53%,–
CCCc1cc(=O)oc2cc(C)c3c(C(C)(C)C)coc3c12,inactive: 3.67%,–

Compound,"activity change, negative = inhibition",outcome
CCC1CCc2nc3sc(C(=O)Nc4cccc(C(F)(F)F)c4)c(N)c3cc2C1 (stereo unspecified),inactive: 2.24%,–
CCc1nn2c(=O)cc(COC(=O)c3ccc(NC(=O)C4CCCCC4)cc3)nc2s1,inactive: 20%,–
COc1ccc(-c2noc(-c3ccc(NC4CCCCC4)c([N+](=O)[O-])c3)n2)cc1,–,inactive
O=C(COc1ccc(F)cc1)Nc1ccccc1OCc1cc(=O)n2ccccc2n1,inactive: -4.9%,–
COC(=O)c1ccc(Cn2nc(-c3ccc(C)cc3)ccc2=O)cc1,inactive: 2.46%,–
CCOc1ccc(C(=O)Nc2ccc3oc(-c4ccc(Br)cc4)nc3c2)cc1,inactive: 6.95%,–
CCOc1ccc(NS(=O)(=O)c2ccc3[nH]cc(C(=O)N4CCCCCC4)c(=O)c3c2)cc1,inactive: 4.2%,–
COc1ccc(N(CC(=O)Nc2cc(Cl)ccc2C)S(=O)(=O)c2c(C)noc2C)cc1,inactive: -30.2%,–
CCOC(=O)c1ccc(N2C(=O)Cc3cc(OCC)c(OCC)cc3C2c2ccccc2)cc1 (stereo unspecified),–,inactive
O=C(c1ccc2c(c1)OCCO2)N(Cc1cccnc1)c1nc2c(F)cc(F)cc2s1,–,inactive
COc1cccc(CNS(=O)(=O)c2ccc(-c3cc(C(F)(F)F)on3)s2)c1,inactive: 6.63%,–
Cn1c(SCc2ccccc2Cl)nc2c([nH]c3ccccc32)c1=O,inactive: -2.63%,–
COc1cccc(CN2C(=O)C3(SCC(=O)N3c3ccc(C(C)C)cc3)c3ccccc32)c1 (stereo unspecified),inactive: -8.59%,–
NC(=O)CSc1nnnn1-c1cccc(O)c1,inactive: 5.91%,–
CCc1cccc(NC(=O)c2oc3ccc4c(c3c2C)C(=O)CC(C)(C)O4)c1,inactive: 5.03%,–
Cc1cccc(CCNC(=O)CCc2c(C)nc3ncnn3c2C)c1,inactive: -8.17%,–
COc1ccc(N2CCN(C(=O)c3sc4nc5n(c(=O)c4c3C)CCC5)CC2)cc1,inactive: -3.23%,–
COCCNC(=O)c1ccc2c(=O)n(CCOC)c(SCC(=O)c3c[nH]c4ccccc34)nc2c1,–,inactive
COc1ccc(Cc2nc3ccc(C(=O)NCCCN4CCN(C)CC4)cc3o2)cc1,inactive: 13.4%,–
